# The other results are listed elsewhere or left out.
# Key:
# Assay in all cases: glycan array binding signal (z-score within array); higher = stronger binding
# Settings in all cases: glycan notation: IUPAC condensed, linker removed
# [1] = target: Neu5Ac(a2-3)Gal(b1-4)GlcNAc(b1-3)[Neu5Ac(a2-3)Gal(b1-4)GlcNAc(b1-6)]GalNAc
# Summary of the method: (§1)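 The binding signal is a Z-score computed within each array. Data were drawn from 3228 arrays in the Consortium for Functional Glycomics database, restricted to those with a known protein sequence. Scores were averaged over arrays of the same protein sequence at different concentrations or buffers, and over linkers, and negative values can be taken as non-binding.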
# [2] = target: Neu5Ac(a2-3)Gal(b1-4)GlcNAc(b1-6)GalNAc
# Summary of the method: as §1
# [3] = target: Neu5Ac(a2-3)Gal(b1-4)GlcNAc(b1-6)[Gal(b1-3)]GalNAc
# Summary of the method: as §1
# [4] = target: Neu5Ac(a2-3)Gal(b1-4)GlcNAc(b1-6)[Neu5Ac(a2-3)Gal(b1-3)]GalNAc
# Summary of the method: as §1
# [5] = target: Neu5Ac(a2-3)Gal(b1-4)GlcNAc6S
# Summary of the method: as §1
# [6] = target: Neu5Ac(a2-3)Gal(b1-4)[Fuc(a1-3)]GlcNAc
# Summary of the method: as §1
# [7] = target: Neu5Ac(a2-3)Gal(b1-4)[Fuc(a1-3)]GlcNAc(b1-2)Man
# Summary of the method: as §1
# [8] = target: Neu5Ac(a2-3)Gal(b1-4)[Fuc(a1-3)]GlcNAc(b1-3)Gal
# Summary of the method: as §1
# [9] = target: Neu5Ac(a2-3)Gal(b1-4)[Fuc(a1-3)]GlcNAc(b1-3)Gal(b1-4)GlcNAc
# Summary of the method: as §1
# [10] = target: Neu5Ac(a2-3)Gal(b1-4)[Fuc(a1-3)]GlcNAc(b1-3)Gal(b1-4)[Fuc(a1-3)]GlcNAc(b1-3)Gal(b1-4)[Fuc(a1-3)]GlcNAc
# Summary of the method: as §1
# [11] = target: Neu5Ac(a2-3)Gal(b1-4)[Fuc(a1-3)]GlcNAc(b1-3)GalNAc
# Summary of the method: as §1
# [12] = target: Neu5Ac(a2-3)Gal(b1-4)[Fuc(a1-3)]GlcNAc(b1-6)[Gal(b1-3)]GalNAc
# Summary of the method: as §1
# [13] = target: Neu5Ac(a2-3)Gal(b1-4)[Fuc(a1-3)]GlcNAc(b1-6)[Neu5Ac(a2-3)Gal(b1-3)]GalNAc
# Summary of the method: as §1
# [14] = target: Neu5Ac(a2-3)Gal(b1-4)[Fuc(a1-3)]GlcNAc6S
# Summary of the method: as §1
# [15] = target: Neu5Ac(a2-3)Gal6S(b1-4)GlcNAc
# Summary of the method: as §1
# [16] = target: Neu5Ac(a2-3)Gal6S(b1-4)[Fuc(a1-3)]GlcNAc
# Summary of the method: as §1
# [17] = target: Neu5Ac(a2-3)GalNAc
# Summary of the method: as §1
# [18] = target: Neu5Ac(a2-3)GalNAc(b1-4)GlcNAc
# Summary of the method: as §1
# [19] = target: Neu5Ac(a2-3)[GalNAc(b1-4)]Gal(b1-4)Glc
# Summary of the method: as §1
# [20] = target: Neu5Ac(a2-3)[GalNAc(b1-4)]Gal(b1-4)GlcNAc
# Summary of the method: as §1
# [21] = target: Neu5Ac(a2-3)[GalNAc(b1-4)]Gal(b1-4)GlcNAc(b1-3)GalNAc
# Summary of the method: as §1
# [22] = target: Neu5Ac(a2-3)[Neu5Ac(a2-6)]GalNAc
# Summary of the method: as §1
# [23] = target: Neu5Ac(a2-6)Gal
# Summary of the method: as §1
# [24] = target: Neu5Ac(a2-6)Gal(b1-3)GlcNAc(b1-3)[Gal(b1-4)GlcNAc(b1-6)]Gal(b1-4)Glc
# Summary of the method: as §1
# [25] = target: Neu5Ac(a2-6)Gal(b1-4)Glc
# Summary of the method: as §1
# [26] = target: Neu5Ac(a2-6)Gal(b1-4)GlcNAc
# Summary of the method: as §1
# [27] = target: Neu5Ac(a2-6)Gal(b1-4)GlcNAc(b1-2)Man
# Summary of the method: as §1
# [28] = target: Neu5Ac(a2-6)Gal(b1-4)GlcNAc(b1-2)Man(a1-3)Man(b1-4)GlcNAc(b1-4)GlcNAc
# Summary of the method: as §1
# [29] = target: Neu5Ac(a2-6)Gal(b1-4)GlcNAc(b1-2)Man(a1-3)[Gal(b1-4)GlcNAc(b1-2)Man(a1-6)]Man(b1-4)GlcNAc(b1-4)GlcNAc
# Summary of the method: as §1
# [30] = target: Neu5Ac(a2-6)Gal(b1-4)GlcNAc(b1-2)Man(a1-3)[GlcNAc(b1-2)Man(a1-6)]Man(b1-4)GlcNAc(b1-4)GlcNAc
# Summary of the method: as §1
# [31] = target: Neu5Ac(a2-6)Gal(b1-4)GlcNAc(b1-2)Man(a1-3)[GlcNAc(b1-4)][Neu5Ac(a2-6)Gal(b1-4)GlcNAc(b1-2)Man(a1-6)]Man(b1-4)GlcNAc(b1-4)GlcNAc
# Summary of the method: as §1
binder,measurement,setting,value
"AFL5 (Aspergillus fumigatus), Q4WB00 (protein) MDNFMEMTKKLGHQPELLRLRALDATYDDALEGKLVVAPLDMSEPGKKILDSGTADGTWLRNVRSKQSVPHDYYGSDVEGELFPKDPDGITYFAHSFKDPWPQQYLGFFDLVHIRGSLAGSAPEGPAPVIQNLTTLLKPGGWVQLMEMNAFSPPPNGPAMTDFAKMASEMFTGIGVGDFANNNKSMLEDAGLKNVQEKRVIVNLGKKAKPELHDQSIHGVTGPIVPLTSVARTVKSSFTGEQLDALPARVKEELETEGGQVEMIIAFGQKA",glycan array binding signal (z-score),[1],-0.26
same,glycan array binding signal (z-score),[2],0.018
same,glycan array binding signal (z-score),[3],0.375
same,glycan array binding signal (z-score),[4],-0.74
same,glycan array binding signal (z-score),[5],0.093
same,glycan array binding signal (z-score),[6],-0.395
same,glycan array binding signal (z-score),[7],-0.274
same,glycan array binding signal (z-score),[8],0.18
same,glycan array binding signal (z-score),[9],-0.096
same,glycan array binding signal (z-score),[10],-0.363
same,glycan array binding signal (z-score),[11],0.219
same,glycan array binding signal (z-score),[12],0.716
same,glycan array binding signal (z-score),[13],1.05
same,glycan array binding signal (z-score),[14],-0.283
same,glycan array binding signal (z-score),[15],-0.728
same,glycan array binding signal (z-score),[16],-0.331
same,glycan array binding signal (z-score),[17],0.281
same,glycan array binding signal (z-score),[18],-0.268
same,glycan array binding signal (z-score),[19],-0.53
same,glycan array binding signal (z-score),[20],-0.407
same,glycan array binding signal (z-score),[21],0.081
same,glycan array binding signal (z-score),[22],0.264
same,glycan array binding signal (z-score),[23],-0.303
same,glycan array binding signal (z-score),[24],-0.394
same,glycan array binding signal (z-score),[25],-0.26
same,glycan array binding signal (z-score),[26],-0.288
same,glycan array binding signal (z-score),[27],-0.154
same,glycan array binding signal (z-score),[28],-0.037
same,glycan array binding signal (z-score),[29],0.333
same,glycan array binding signal (z-score),[30],0.268
same,glycan array binding signal (z-score),[31],-0.373

# Reference: the supplement of paper PMC8728848
